From paper PMC12136788
The other results are listed elsewhere or left out.

T1: UNK ZnF1-6 (called full-length) (human, UniProt Q9C0B0 30-357)
T1 sequence: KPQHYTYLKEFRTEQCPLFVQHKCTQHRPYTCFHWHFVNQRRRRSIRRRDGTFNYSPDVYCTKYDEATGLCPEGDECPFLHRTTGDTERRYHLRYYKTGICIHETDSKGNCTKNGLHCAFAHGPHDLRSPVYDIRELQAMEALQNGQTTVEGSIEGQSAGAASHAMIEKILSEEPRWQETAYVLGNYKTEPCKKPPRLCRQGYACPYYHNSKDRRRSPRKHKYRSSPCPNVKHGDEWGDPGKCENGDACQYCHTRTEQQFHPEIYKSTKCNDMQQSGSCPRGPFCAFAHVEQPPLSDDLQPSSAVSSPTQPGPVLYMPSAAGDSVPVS

B1: chrX:53432280:53432385:-|CDS|ENSG00000072506|unk|FALSE|unique (ssRNA)
RNA: GGGAGUUCUACAGUCCGACGAUCUGAGAAGGAUGUGCAAACAGCUCUGGCUCUAGCAAAAGGAAAGUUUGGCCGUGUGGAUGUAGCUGUCAACUGUGCAGGCAUCGCGGUGGCUAGCAAGACGUACAACUUAAAGAAGGGCCACAACAGAGGAUUGAGCAUCA
B2: chrX:100644401:100644502:+|5pUTR|ENSG00000102359|unk|FALSE|bound_elsewhere (ssRNA)
RNA: GGGAGUUCUACAGUCCGACGAUCUUAACAGAAUCCCGGAGGCCGGGACAGACCAGGAGCCACUCGUUCUAGGAAUGUUAAAGUAGAAGGUUUUUUCCAAUUGAUGAGAGGAGCAGAGAGGAAGGAGAAAGAGGAGGAGAGAGACAACAGAGGAUUGAGCAUCA
B3: chr19:45489345:45489553:-|CDS|ENSG00000125744|control|control|control (ssRNA)
RNA: GGGAGUUCUACAGUCCGACGAUCAGGACGUCAGGAGUGGUCUUCACAGGCCUGAUGGUCUCCCUCCUCUGCCUCCUGCACUUUAGCAUCGUGUCCGUGGCCGCGCACUUGGCUCUGUUGCUGCUCUGCGGCACCAUCUCUCUCCAACAGAGGAUUGAGCAUCA
B4: chr10:86890108:86890218:+|CDS|ENSG00000107779|unk|FALSE|unique (ssRNA)
RNA: GGGAGUUCUACAGUCCGACGAUCUCAUGGCACUGGGAUGAAAUCAGACUCCGACCAGAAAAAGUCAGAAAAUGGAGUAACCUUAGCACCAGAGGAUACCUUGCCUUUUUUAAAGUGCUAUUGCUCAGGGCACUGUCCAGAUGACAACAGAGGAUUGAGCAUCA
B5: chr3:52708059:52708100:+|3pUTR|ENSG00000114902|msi1_unk|total|mutant (ssRNA)
RNA: GGGAGUUCUACAGUCCGACGAUCACACAAGUAUGAAGUUUCUUUCAGGUGUAAAUAAUGAAAAAUAAAUGCCUCAUAAAUGACCGUACAAUGUAACUAUCAAAGUUUUAUAAUUCAUUAUGAGUUAACCAUUUUAAUGUUUCCCAACAGAGGAUUGAGCAUCA
B6: chr2:101892430:101892531:+|3pUTR|ENSG00000071054|msi1|total|mutant (ssRNA)
RNA: GGGAGUUCUACAGUCCGACGAUCCCAUCCGAGGUUGAUGGGGCAACUGCAGCCCAUGACACAAGAUCUCAUUGUUCUCGAUGCCGAGGGGUUGGCCGCAGACAGGUGGUUACAUCCGAACCGUCACACAAACUGUUCAGUGUUCAACAGAGGAUUGAGCAUCA
B7: chr10:70774212:70774357:-|CDS|ENSG00000166220|control|control|control (ssRNA)
RNA: GGGAGUUCUACAGUCCGACGAUCAAAAGACCUCGCUCUGGGACUCCUGCAGACAGCAGUGGCUCAGCUCCUUCCCCAGCCCCUAGUCUCCAUCCCUACAGAAAAGCUCCUAAGCCAGCUUCCAGAAGUGCAUGAACCUCCUCACAACAGAGGAUUGAGCAUCA
B8: chr4:173248057:173248158:+|CDS|ENSG00000109586|unk|total|mutant (ssRNA)
RNA: GGGAGUUCUACAGUCCGACGAUCUUCAAACCUGUGGUACCAUGGCCUCAUGUUGAAGGAGCCGAAGUGGACUCCGAGUCUAUCCGAAGAAUAAACAAGGCCAAAAAUGAACAAGAGCACCAUGCUGGAGGAGAUUCCCAGAAACAACAGAGGAUUGAGCAUCA
B9: chr20:59325757:59325866:+|3pUTR|ENSG00000124205|unk|total|mutant (ssRNA)
RNA: GGGAGUUCUACAGUCCGACGAUCUUAUGUGGAUCUGUUCAAAGCCGUCACUGUAUAUACGUACCGAGAGGCCGACCGGCCGGCCGAUUUUAAAUUGCAUUCUGAAUACAAACUCAUACUCCUCCGAGCUUGAAUUACAUUUUUCAACAGAGGAUUGAGCAUCA
B10: ENSG00000124766:be:win_751|CDS|ENSG00000124766|bound_else_gene|NA|bound_elsewhere_windowed (ssRNA)
RNA: GGGAGUUCUACAGUCCGACGAUCGGCGCCGCCGCCGACCACCACUCGCUGUACAAGGCGCGGACUCCCAGCGCCUCGGCCUCCGCCUCCUCGGCAGCCUCGGCCUCCGCAGCGCUCGCGGCCCCGGGCAAGCACCUGGCGGAGCAACAGAGGAUUGAGCAUCA
B11: ENSG00000180447:stop:overlap|stop_codon|ENSG00000180447|stop_codon|NA|stop_codon (ssRNA)
RNA: GGGAGUUCUACAGUCCGACGAUCCCCGGGGCGCCUGGACCCCACUCGCCUCCAUCUUGCUGCUGCUGCUUGGGCCGCUCUUUUAGCCCUCGCGCCCCCCGCCGUUGGCUGCGGGAGAGCCCGCGUCCCACUCCCGUGCUCGCCCAACAGAGGAUUGAGCAUCA
B12: ENSG00000107863:be:win_3901|CDS|ENSG00000107863|bound_else_gene|NA|bound_elsewhere_windowed (ssRNA)
RNA: GGGAGUUCUACAGUCCGACGAUCGUGUUUGGUCCCACCCUUGUUCGAACAUCAGAAGACAACAUGACCCACAUGGUCACCCACAUGCCUGACCAGUACAAGAUUGUAGAAACGCUCAUCCAGCACCAUGACUGGUUUUUCACACAACAGAGGAUUGAGCAUCA
B13: chr7:137227872:137228000:-|3pUTR|ENSG00000105894|msi1_unk|total|mutant (ssRNA)
RNA: GGGAGUUCUACAGUCCGACGAUCGGAACAUAAAAAGGACAUCAGCAAACAGGAUCAGUUAACUAUUGCAUUUAUAUGUACCGCCGGCUUUGUAUUCAAAAAUUAUCUACCGCUAAGUACACAAUAAGCAAAAACAAAAAGAAACAACAGAGGAUUGAGCAUCA
B14: chrX:18604022:18604123:+|CDS|ENSG00000008086|msi1|FALSE|unique (ssRNA)
RNA: GGGAGUUCUACAGUCCGACGAUCGACGAAGGUCUCCCUGCCAAUGAAAGCUUCCUAAAUGGAAACCUUGCUGGAGCUAGUCUUAGUCCACUGCACACCAAAACCUACCAAGCAAGCAGCCAGCCUGGGUCUACCAGCAAAGAUCAACAGAGGAUUGAGCAUCA
B15: chr14:22612100:22612201:+|3pUTR|ENSG00000100439|msi1|total|mutant (ssRNA)
RNA: GGGAGUUCUACAGUCCGACGAUCCCACCCCUGACCCAUCUGUCAGCUUUUUCCCAGGGAGCCGUUUCAGGGGUUCUGGGCAGCCGGCUGGGCCUGGCCUCAGAACCUGGUGGCUCCUGCCUGCUCCUUCACUUUUGUAAAACCCAACAGAGGAUUGAGCAUCA
B16: chr1:236581285:236581397:-|CDS|ENSG00000119285|unk|FALSE|unique (ssRNA)
RNA: GGGAGUUCUACAGUCCGACGAUCCAUCUAGAAGAUGUUUUUCAGUUAUUCAAGUUCUGUUCUGUUUUAUGGACCUAUGGUUCUAGCCUUUCAAAUCCACUAAACUGCAGUGUGAAAACAGUGCUGCAGACUCAAGCUCUUUAUCAACAGAGGAUUGAGCAUCA
B17: chr7:21908192:21908293:-|CDS|ENSG00000164649|msi1|total|mutant (ssRNA)
RNA: GGGAGUUCUACAGUCCGACGAUCUUUUCCCGCGCACGCUUACAGAAUGAGAAAAAAACAAUUCUUGAAAGAAAGAAAGACUGCCGACAGGUGAUACAAAGGGAAGAUUCUACCUCUGAGUCUGAGGAUGACUCUCGGGAUGAGCAACAGAGGAUUGAGCAUCA
B18: chr3:48467913:48467962:-|3pUTR|ENSG00000164054|msi1_unk|total|mutant (ssRNA)
RNA: GGGAGUUCUACAGUCCGACGAUCCCCAGACAUGAAUACCUCGUGUUCCUCCUCCCUCUAUUACUGUUUCACCAGAGCUGUCUCCGCUCAAAUCUGUUGUGUUUCUGAGUCCCGGGUCUGUACACUUGUUUAUAAUAAAUGCAACAACAGAGGAUUGAGCAUCA
B19: chr20:23354638:23354749:+|3pUTR|ENSG00000132661|unk|FALSE|unique (ssRNA)
RNA: GGGAGUUCUACAGUCCGACGAUCAAGUUCUAGGAGUCCCUUUCCUGAAUAUAUACUUGUUUGUCAUAGUUUCCUUUUCAAAGUAGUAAACUUUUCUAUUUUUCUACUUGCCCAGUAGAGACUCUGAUUCUGGAAAUUCUGACACAACAGAGGAUUGAGCAUCA
B20: chr13:29511929:29512034:-|3pUTR|ENSG00000139514|msi1_unk|FALSE|overlapping (ssRNA)
RNA: GGGAGUUCUACAGUCCGACGAUCUAUCAUAUCCCUCAUUUCUUUCCCUGAAAUAAAAAUACACACAAGCAAAAAAAAAAUGAUAGUUUCACAUCUCUUAGUUCCCUUGCCCAAACAAGAAUAUUCUUAGUUCCACUGGCCAGGCAACAGAGGAUUGAGCAUCA
B21: chr12:47968718:47968836:+|3pUTR|ENSG00000134291|unk|total|mutant (ssRNA)
RNA: GGGAGUUCUACAGUCCGACGAUCCUGGGAGCUUUUUGAAAAGAAAGAAAAAAGUGUGUUGGCUUUUUUUUUUUUCCGAAAGUCCGAAUUGUUUUUACCAAGAGUCUAUGUGGGGCUUGAUUCACCCUUCAUCCAUUGGCUGGACAACAGAGGAUUGAGCAUCA
B22: chr19:34227675:34227687:+|3pUTR|ENSG00000257103|msi1_unk|FALSE|overlapping (ssRNA)
RNA: GGGAGUUCUACAGUCCGACGAUCUUAAAACAUGAGCAUUAAAUAUAUUUGGAAUAGCAGAAGGUUAAGUAAUUUCUUAUGUAUAGUUAAACUAAAGCAGUACUUCAGUGGGACUUAACAAGUAUUUUUUCAUCACUGAAAGGUCAACAGAGGAUUGAGCAUCA

biological target: T1, UNK ZnF1-6 (called full-length); assay: nsRBNS (natural sequence RNA bind-n-seq); RBNS binding buffer (assumed for nsRBNS): 25 mM Tris pH 7.5, 150 mM KCl, 3 mM MgCl2, 0.01% Triton X-100, 500 ug/ml BSA, 20 U/ml SUPERase-In, 4 C; UNK is unkempt and MSI1 is Musashi-1; names of the RNAs are library labels; protein concentration not given here; high values mean tight binding

Row | Binder | binding signal [enrichment R]
1 | B1 | 0.758
2 | B2 | 1.6
3 | B3 | 0.915
4 | B4 | 0.599
5 | B5 | 0.406
6 | B6 | 0.578
7 | B7 | 1.26
8 | B8 | 0.414
9 | B9 | 0.421
10 | B10 | 0.661
11 | B11 | 0.701
12 | B12 | 0.634
13 | B13 | 0.517
14 | B14 | 0.857
15 | B15 | 0.714
16 | B16 | 1.2
17 | B17 | 0.512
18 | B18 | 0.878
19 | B19 | 1.22
20 | B20 | 1.65
21 | B21 | 0.395
22 | B22 | 1.37
